# Source: PubChem BioAssay AID588689 (Southern Research Specialized Biocontainment Screening …, 2011)
# Where “and” joins values, the source holds several entries; their conditions need not be identical. Equal entries are not always repeated. Out of some 340,000 compounds screened, about 1,000 (0.29%) were called active. Inconclusive results, whose numbers are uncertain, are shown with a selection of clear calls. Rule as the data show it: inconclusive = inhibition above about 29% without an active follow-up result; inactive = below that.
# Molecular target: Genome polyprotein (Dengue virus type 2 (strain 16681-PDK53)) (UniProt P29991)
# Assay: Dengue-2 NS5 methyltransferase inhibitors, primary screen, biochemical, confirmation dose response (AID 588689)
# Settings: Dengue-2 NS5 methyltransferase capping enzyme assay, at 25 µM, active compounds read high
row,Compound,inhibition
1,CCOC(=O)/C=c1\s/c(=C\c2ccc3cc(OC)ccc3c2)c(=O)n1CC(=O)NCC1CCCO1 (configuration not stated),inconclusive: 61.9%
2,COc1ccc2c(Cl)c(C(=O)N/N=C3\CCCC(=O)C3)sc2c1,inconclusive: 149%
3,O=C(CSc1nncn1-c1ccccc1)N1CCCC1,inactive: -4.17%
4,O=c1c2ccccc2nc(SCc2cc([N+](=O)[O-])cc3c2OCOC3)n1-c1ccccc1,inactive: -2.94%
5,O=C(NCCc1c[nH]c2ccccc12)c1ccco1,inactive: -0.82%
6,N=c1c(S(=O)(=O)c2ccc(Br)cc2)cc2c(=O)n3ccccc3nc2n1C1CCCC1,inconclusive: 75.6%
7,CN1CC=C2C(C#N)=C(N)C(C#N)(C#N)[C@H](c3ccoc3)[C@H]2C1,inconclusive: 128%
8,CC(=O)c1ccc(NC(=O)CCc2nnc3ccc(N4CCCC4)nn23)cc1,inactive: 1.97%
9,CCc1cccc2c1NC(=O)C21N2CCCC2C(C(=O)c2ccc3ccccc3c2)C12C(=O)Nc1ccccc12 (configuration not stated),inactive: -10.4%
10,CCCN1C(=O)S/C(=C/c2ccc(N3CCOCC3)o2)C1=O,inconclusive: 45.3%
11,O=C(O)COc1ccc(/C=C/C(=O)c2ccc3ccccc3c2)cc1,inactive: 21.6%
12,O=C(CSc1nnc(COc2ccc(Cl)cc2)o1)N1CCN(c2ccccc2)CC1,inconclusive: 152%
13,Cc1ccc(S(=O)(=O)/N=C2/NC(=O)/C(=C/c3cc([N+](=O)[O-])ccc3O)S2)cc1,inconclusive: 46.6%
14,CCC1c2ccc(C)n2CCN1C(=O)Nc1cc(Cl)ccc1OC (configuration not stated),inconclusive: 29.1%
15,COc1cc(/C=C2\CCC(C)C3=C(c4cc(OC)c(OC)c(OC)c4)C(C#N)=C(N)OC32)cc(OC)c1OC (configuration not stated),inconclusive: 42.8%
16,O=C(NCCCn1ccnc1)c1ccc(Cl)s1,inactive: -4.6%
17,CC1CCCN(C2=C(Cl)C(=O)N(c3cccc(Cl)c3)C2=O)C1 (configuration not stated),inactive: 5.18%
18,O=C(NC1CCCC1)c1ccc2nc(-c3ccco3)c(-c3ccco3)nc2c1,inconclusive: 99.8%
19,OCC(CO)(CO)N=Cc1c(O)ccc2ccccc12,inactive: 24.8%
20,O=C(O)c1cc2ccccc2c(N=Nc2cccnc2)c1O,inactive: 0.81%
21,COc1ccc(N=Cc2nc(-c3ccccc3)oc2OC(C)=O)cc1,inactive: -15.3%
22,N=c1c(C(=O)NC2CCCCC2)cc2c(=O)n3ccccc3nc2n1Cc1ccccc1,inconclusive: 107%

row,Compound,inhibition
1,O=C1C(=O)c2ccc(-c3ccccc3)cc2-c2ccccc21,inactive: -10.1%
2,O=C1NC(=O)N(Cc2ccccc2)C1=O,inactive: 0%
3,COC(=O)c1sc(N2C(=O)C(O)=C(C(=O)c3ccc(C)o3)C2c2ccc(F)cc2)nc1C (configuration not stated),inactive: -6.35%
4,C=CCn1c(NC(=O)c2ccc(Br)o2)c(S(=O)(=O)c2ccccc2)c2nc3ccccc3nc21,inactive: -4.19%
5,O=c1[nH]c2c(s1)C=Nc1ccccc1N2,inconclusive: 109%
6,N=c1c(C(=O)NC2CCCCC2)cc2c(=O)n3ccccc3nc2n1CCc1ccccc1,inconclusive: 46.9%
7,COc1ccc(S(=O)(=O)N2CCOCC2)cc1NC(=O)COC(=O)C1CC1C (configuration not stated),inactive: -7.51%
8,Cc1[nH]n(-c2ccccc2)c(=O)c1N=Nc1ccccc1O,inactive: -2.22%
9,O=C(O)CCNc1ccc(NCCC(=O)O)c2c1C(=O)c1ccccc1C2=O,inconclusive: 49.6%
10,CCOC(=O)Cc1csc(NC(=O)c2sc3nc4cc(C)ccc4cc3c2N)n1,inconclusive: 75.2%
11,N#C/C(=C/c1ccc(N2CCOCC2)o1)c1nc2ccccc2[nH]1,inconclusive: 177%
12,Cc1ccn(-c2cc(O)c(-n3ccc(C)n3)cc2O)n1,inactive: -6.11%
13,Cc1cccc(/C=C2/Sc3ccc(C(=O)N4CCOCC4)cc3NC2=O)c1,inconclusive: 52.9%
14,CN(C)c1ccc(-c2cc3ccccc3c(=O)o2)cc1,inconclusive: 88.4%
15,COc1cc(N=Cc2c(O)c3ccccc3oc2=O)c(OC)cc1Cl,inconclusive: 41.6%
16,COc1cc(/C=C2/NC(=O)NC2=O)cc(Br)c1OCc1ccc(C(=O)O)cc1,inactive: -4.44%
17,CCOC(=O)C1=C(O)c2ccccc2C(=O)/C1=C\c1ccc(C)cc1,inconclusive: 104%
18,Cc1[nH]c2ccccc2c1-c1nc2ccccc2[nH]1,inactive: -3.22%
19,COc1ccc(/C=C2\Sc3ccc(C(=O)N4CCCC4)cc3N(C)C2=O)cc1OC,inconclusive: 36.4%
20,CCOC(=O)C1CCN(C(=O)Nc2ccc3nc(-c4ccco4)c(-c4ccco4)nc3c2)CC1,inconclusive: 71%
21,Cc1ccc(C(=O)Oc2oc(-c3ccccc3)nc2C=Nc2ccc(N(C)C)cc2)cc1,inconclusive: 75.2%
22,COc1cccc(F)c1C(=O)NC(=O)Nc1ccc2nc(C)oc2c1,inconclusive: 75.8%

row,Compound,inhibition
1,Cc1cc(C)n2nc3nc4c(cc3c2n1)CCCC4,inconclusive: 97.6%
2,COc1ccccc1C(=O)NC(=O)COC(=O)Cc1n[nH]c(=O)c2ccccc12,inactive: 3.6%
3,CCN1CCN(c2c(/C=C3\SC(=S)N(Cc4ccco4)C3=O)c(C)c(C#N)c(=O)n2C)CC1,inconclusive: 43.1%
4,Cc1ccc(S(=O)(=O)NCCC(=O)Nc2nccs2)cc1,inactive: -0.76%
5,COc1ccccc1N1CCN(C(=O)C2CCCN(c3ncnc4c3nc3n4CCCCC3)C2)CC1 (configuration not stated),inconclusive: 32.5%
6,O=C(c1cccs1)c1no[n+]([O-])c1C(=O)c1cccs1,inconclusive: 50.3%
7,CCCN(CCC)C(=O)C1c2ccccc2Oc2ccccc21,inconclusive: 71.5%
8,O=C(CCCc1nc(-c2ccc(Cl)cc2)no1)NCC1CCCO1 (configuration not stated),inactive: 1.63%
9,CC1(C)CC(=O)C2=C(C1)OC1=C(C(=O)CC(C)(C)C1)C2c1ccc(O)cc1O,inconclusive: 93.5%
10,COc1ccc2cc(C(=O)N/N=C/c3sc4ccccc4c3O)ccc2c1,inconclusive: 152%
11,C=CCNC(=O)C(C#N)c1nc2ccccc2nc1N1CCN(Cc2ccccc2)CC1 (configuration not stated),inconclusive: 51.3%
12,COCCn1c(=N)c(S(=O)(=O)c2ccc(Br)cc2)cc2c(=O)n3ccccc3nc21,inconclusive: 117%
13,O=C(C1=NN(c2ccccc2)C2C(=O)N(c3ccc(Cl)cc3)C(=O)C12)c1ccccc1 (configuration not stated),inconclusive: 40.3%
14,COc1ccc(N=Cc2cc(Cc3ccccc3Cl)cc([N+](=O)[O-])c2O)cc1OC,inconclusive: 59.2%
15,O=C1c2cc(Br)ccc2N(Cc2ccc(Br)cc2)S(=O)(=O)C1c1cc(Cl)c(Cl)cc1[N+](=O)[O-] (configuration not stated),inconclusive: 36.4%
16,C=CCOc1ccc(/C=C/C(=O)OCC(=O)NCCCc2ccccc2)cc1,inactive: 0%
17,C/C(=N\Nc1ncc(Cl)cc1Cl)c1ccccn1,inconclusive: 135%
18,O=C(NC(=S)NCc1ccccc1)c1ccccc1[N+](=O)[O-],inactive: -9.35%
19,Cc1ccc(/C=C2/SC(=O)NC2=S)o1,inconclusive: 106%
20,CN(CC(=O)Nc1ccc(F)cc1)C(=O)CSc1nncs1,inactive: -2.59%
21,COC(=O)c1c(C)[nH]c(C)c1C(=O)c1ccccc1Cc1ccccc1,inconclusive: 153%
22,c1coc(-c2nc(-c3ccco3)c(-c3ccco3)nc2-c2ccco2)c1,inconclusive: 58.2%

row,Compound,inhibition
1,O=C(Nc1ccc(S(=O)(=O)Nc2ncccn2)cc1)c1ccc(N2CCCC2=O)cc1,inconclusive: 34.5%
2,Nc1nnnn1/N=C/c1cc(Cl)cc(Cl)c1O,inconclusive: 45.3%
3,COCc1nc(-c2cc(Br)ccc2OC)no1,inactive: -4.06%
4,CC1(C)CC(=O)C2=C(C1)OC(N)=C(C#N)C2c1ccccc1[N+](=O)[O-] (configuration not stated),inconclusive: 45.9%
5,CN(C)/C=C1\C=C2C(=O)c3ccccc3N2C1=O,inconclusive: 41.6%
6,CCOc1ccc(C(=O)CSc2nnc(C3CC3)n2C)cc1,inactive: -4.8%
7,CN(C)c1ccc(/C=C/c2nc3ccccc3c(=O)n2CCO)cc1,inconclusive: 90.8%
8,Cc1ccc(CNC(=O)Cn2c(=O)c3sccc3n(Cc3ccc([N+](=O)[O-])cc3)c2=O)cc1,inactive: -4.46%
9,COc1ccc(N=Cc2sc(O)c3ccccc23)cc1,inconclusive: 165%
10,Cc1cccc(N(CC(O)CN2CCOCC2)S(=O)(=O)c2ccccc2)c1 (configuration not stated),inactive: 0%
11,CC(Sc1nnc(COc2ccc(Cl)cc2)n1Cc1ccccc1)C(=O)O (configuration not stated),inactive: 0.73%
12,CCN(CC)CCCC(C)n1c2nc(=O)[nH]c(=O)c-2nc2cc(Cl)ccc21 (configuration not stated),inconclusive: 44.8%
13,CN1CCC2(CC1)C1CN(C)CC=C1C(C#N)=C(N)C2(C#N)C#N (configuration not stated),inconclusive: 46% and inconclusive: 36.5%
14,CCOc1ccccc1NC(=O)Nc1ccc(OC)nc1,inconclusive: 30.1%
15,CCCCn1c(=N)c(S(=O)(=O)c2ccc(Br)cc2)cc2c(=O)n3cccc(C)c3nc21,inconclusive: 89.2%
16,Cc1sc2nc(CN3CCCC3)nc(N3CCN(S(=O)(=O)c4cccs4)CC3)c2c1C,inconclusive: 58.5%
17,O=C(CSc1nc(-c2ccccc2)cc(C(F)(F)F)n1)N1CCOCC1,inconclusive: 152%
18,Cn1c(=O)c(NCCO)c2c3c(cccc31)C(=O)c1ccccc1-2,inconclusive: 167%
19,CCOC(=O)N1CCN(S(=O)(=O)N2CCCC(C(=O)NCc3ccccc3Cl)C2)CC1 (configuration not stated),inactive: -6.21%
20,CCOc1ccc(/C=c2\sc3nc(-c4ccco4)nn3c2=O)cc1OCC,inconclusive: 59.1%
21,Cc1c2ccccc2nc2c(F)c(N(C)C)c(F)c(F)c12,inconclusive: 30.5%
